Data from US8916607B2, “Use of piperphentonamine or salts thereof in manufacture of medicaments for treating brain diseases” (Guangzhou Municipal Zhongwei Biotechnology Limited Company, priority 2009, dated 2014).

System: cerebral hemorrhage side of ICH rat brain induced by collagenase
Assay: other animal experiments in ICH rat induced by collagenase: BBB permeability, SOD, MDA, TNF, MPO
Conditions: 2 mg/kg

Q: Which results are given for `CN(CCC(=O)/C=C/c1ccc(O)cc1)CCc1ccc2c(c1)OCO2.Cl` [piperphentonamine hydrochloride, Piperphentonamine hydrochloride]?
A: BBB permeability of cerebral hemorrhage side: reduce increased degree of the BBB permeability; SOD content of cerebral hemorrhage side: prevent the decrease of SOD content
